Laboratory results from PubChem BioAssay AID504333 (National Center for Advancing Translational Sciences (NCATS), 2011).
About 16,000 (4.4%) of roughly 360,000 compounds were called active. The inconclusive results got no clear call from the source; some entries with a clear call stand among them for comparison. Calls come from the whole dose curve; as a rule, active = well fitted inhibition curve with a large enough effect; inconclusive = small, poorly fitted or top-dose-only effect; inactive = no such curve, though single readings can be large or run the other way. A potency beside an inconclusive call is a rough fit, not a confirmed value. Where a SMILES comes first, the peptide text is derived from it. The star is where a group is joined. OPac = O=C(CO*)c1ccccc1; Bz = O=C(c1ccccc1)*

molecular target: Bromodomain adjacent to zinc finger domain protein 2B (Homo sapiens) (UniProt Q9UIF8); experiment: qHTS Assay for Inhibitors of BAZ2B; conditions: AlphaScreen BAZ2B-H3K14Ac peptide displacement; series mostly up to 114 µM; note: nearly all actives have a fitted effect of over 60% in size
Sequence of UniProt Q9UIF8 (Q9UIF8 whole entry, looked up, the tested form may be a part): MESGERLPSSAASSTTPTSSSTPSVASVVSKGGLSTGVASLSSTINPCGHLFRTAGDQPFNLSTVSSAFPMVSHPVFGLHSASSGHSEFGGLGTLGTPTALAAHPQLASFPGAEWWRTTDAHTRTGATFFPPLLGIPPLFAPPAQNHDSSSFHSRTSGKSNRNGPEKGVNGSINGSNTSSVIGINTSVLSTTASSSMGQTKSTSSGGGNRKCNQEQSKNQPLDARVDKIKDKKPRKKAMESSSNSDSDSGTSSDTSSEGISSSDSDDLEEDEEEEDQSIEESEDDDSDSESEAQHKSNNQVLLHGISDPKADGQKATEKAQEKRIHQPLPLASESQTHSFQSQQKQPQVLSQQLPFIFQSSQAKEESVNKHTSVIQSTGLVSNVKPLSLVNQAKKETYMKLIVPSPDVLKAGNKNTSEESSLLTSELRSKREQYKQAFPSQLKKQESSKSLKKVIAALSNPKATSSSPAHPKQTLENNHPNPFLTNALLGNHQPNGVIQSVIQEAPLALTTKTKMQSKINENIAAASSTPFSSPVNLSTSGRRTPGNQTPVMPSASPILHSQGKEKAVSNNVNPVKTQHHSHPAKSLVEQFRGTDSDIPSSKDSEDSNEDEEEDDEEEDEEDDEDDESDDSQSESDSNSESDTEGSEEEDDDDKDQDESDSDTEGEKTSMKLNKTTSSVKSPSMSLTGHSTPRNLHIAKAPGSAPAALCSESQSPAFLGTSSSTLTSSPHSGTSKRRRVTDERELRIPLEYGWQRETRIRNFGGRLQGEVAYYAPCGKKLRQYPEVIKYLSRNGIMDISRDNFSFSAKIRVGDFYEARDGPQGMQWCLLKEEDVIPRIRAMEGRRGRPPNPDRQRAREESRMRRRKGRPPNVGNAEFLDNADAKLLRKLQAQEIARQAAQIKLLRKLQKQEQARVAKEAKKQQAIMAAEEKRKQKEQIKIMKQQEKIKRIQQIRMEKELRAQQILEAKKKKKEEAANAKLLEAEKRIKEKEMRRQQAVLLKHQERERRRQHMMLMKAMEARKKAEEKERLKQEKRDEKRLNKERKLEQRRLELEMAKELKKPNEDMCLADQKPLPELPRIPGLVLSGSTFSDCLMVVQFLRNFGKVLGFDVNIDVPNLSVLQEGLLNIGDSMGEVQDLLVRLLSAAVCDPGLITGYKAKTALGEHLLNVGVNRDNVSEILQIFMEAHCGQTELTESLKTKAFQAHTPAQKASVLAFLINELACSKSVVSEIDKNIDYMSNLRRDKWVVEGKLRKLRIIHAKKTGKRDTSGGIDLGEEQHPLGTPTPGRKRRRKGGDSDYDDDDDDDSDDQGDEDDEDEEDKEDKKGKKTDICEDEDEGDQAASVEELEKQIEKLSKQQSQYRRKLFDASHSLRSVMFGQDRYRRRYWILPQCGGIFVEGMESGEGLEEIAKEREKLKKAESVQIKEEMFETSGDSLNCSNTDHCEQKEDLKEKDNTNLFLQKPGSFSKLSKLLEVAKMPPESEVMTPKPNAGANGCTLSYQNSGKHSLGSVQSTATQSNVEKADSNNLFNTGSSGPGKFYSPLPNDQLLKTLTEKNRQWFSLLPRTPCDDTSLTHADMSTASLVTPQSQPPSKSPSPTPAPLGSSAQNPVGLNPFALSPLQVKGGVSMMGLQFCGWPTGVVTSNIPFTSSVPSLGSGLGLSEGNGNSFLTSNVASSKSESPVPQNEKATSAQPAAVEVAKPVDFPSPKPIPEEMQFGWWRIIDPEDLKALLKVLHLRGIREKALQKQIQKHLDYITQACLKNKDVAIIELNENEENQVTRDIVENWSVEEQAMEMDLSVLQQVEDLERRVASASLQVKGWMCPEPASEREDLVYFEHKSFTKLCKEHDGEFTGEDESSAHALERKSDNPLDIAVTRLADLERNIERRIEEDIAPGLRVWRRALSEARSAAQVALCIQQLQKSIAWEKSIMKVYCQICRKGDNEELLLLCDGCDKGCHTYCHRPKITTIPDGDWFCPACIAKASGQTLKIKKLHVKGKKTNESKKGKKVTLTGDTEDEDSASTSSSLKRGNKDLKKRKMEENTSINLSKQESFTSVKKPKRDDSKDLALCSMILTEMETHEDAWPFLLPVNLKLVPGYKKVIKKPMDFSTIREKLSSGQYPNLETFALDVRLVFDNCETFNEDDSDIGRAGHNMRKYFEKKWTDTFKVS
Summary of the method: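 AlphaScreen displacement: compounds (up to 110uM) incubated 30 min at room temperature with a preformed 50 nM BAZ2B/50 nM biotinylated H3K14Ac peptide complex in PBS pH 7.4 with Tween-20. Donor and acceptor beads at 10 ug/mL final added, 20 min light-protected before reading.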
Potency is the fitted concentration of half-maximal effect; tags give direction and shape of the fitted curve.

SMILES | Potency
C/C(=N/NS(=O)(=O)c1cccc([N+](=O)[O-])c1)c1ccncc1 | inconclusive: 44.7 µM [inhibitor, partial curve]
COc1ccc(NS(=O)(=O)c2cc(C(=O)N3CCN(C/C=C/c4ccccc4)CC3)ccc2C)cc1 | active: 50.1 µM
CCOc1cccc(=O)c2c(C)n(-c3ccc(C(=O)O)cc3)c(C)c12 | active: 50.1 µM
Cc1ccc(S(=O)(=O)N2CCCc3cc(NS(=O)(=O)c4ccc(F)c(C)c4)ccc32)cc1 | inactive
CCOC(=O)CCn1cc(F)c(=O)[nH]c1=O | inactive
CCCS(=O)(=O)Nc1cc(-c2cn3cccc(C)c3n2)ccc1C | inconclusive: 79.4 µM [inhibitor, single point]
S=C(NCc1ccco1)Nc1ccc(Oc2ccccc2)cc1 | inconclusive: 56.2 µM [inhibitor, partial curve]
Cc1cc2cc(CNS(=O)(=O)c3ccccc3)ccc2n1C | inconclusive: 79.4 µM [inhibitor, single point]
CCOc1ccc(-c2cc(N)n(S(=O)(=O)c3cccc4nsnc34)n2)cc1 | inconclusive: 22.4 µM [inhibitor, full curve, poor fit]
COc1ccccc1C(=O)CSc1n[nH]c(N)n1 | inactive
COc1ccc2c(c1)c(=O)oc1c(C)c(OCc3ccc(C(=O)O)cc3)ccc12 | active: 50.1 µM
CC(=O)N1c2ccc(S(=O)(=O)N3CCCC3)cc2CC1C(=O)NCc1ccc(N(C)C)cc1 (configuration not stated) | inconclusive: 70.8 µM [inhibitor, single point]
CCC(=O)c1c[nH]c(C(=O)NCc2ccccc2OC)c1 | active: 79.4 µM
CC(Oc1ccc(F)cc1)C(=O)NCC1(N(C)C)CCCCC1 (configuration not stated) | inactive
CCOC(=O)c1ccc(NC(=O)c2nc[nH]c2C(=O)NC)cc1 | inconclusive: 79.4 µM [inhibitor, single point]
Cc1ccc(S(=O)(=O)C(CNC(=O)C(=O)NCc2ccc(Cl)cc2)c2cccs2)cc1 (configuration not stated) | inactive
O=C1c2cccnc2C(=O)N1Cc1ccc(F)cc1S(=O)(=O)NCc1ccco1 | inconclusive: 28.2 µM [inhibitor, single point]
Cc1ccc(C2=NN3C(C2)c2ccccc2OC32C(=O)Nc3ccccc32)cc1 (configuration not stated) | inconclusive: 39.8 µM [inhibitor, full curve, poor fit]
CCOC(=O)c1sc(NC(=O)CCN2CCN(C)CC2)c(C(=O)OCC)c1C | inconclusive: 89.1 µM [inhibitor, single point]
COCCOc1nc2c(c(=O)n(C)c(=O)n2C)n1CCc1ccccc1 | inconclusive: 89.1 µM [inhibitor, single point]
COc1cc2[nH]c3c(Cl)ncnc3c2cc1OC | active: 44.7 µM
O=C(CSc1ccsc1[N+](=O)[O-])N1CCN(c2ccccn2)CC1 | inconclusive: 10 µM [inhibitor, full curve]
NS(=O)(=O)c1ccc(-c2ccc(/C=C3\C(=O)Nc4cc(Cl)ccc43)o2)cc1 | active: 56.2 µM
CCSc1sccc1C1C(C#N)=C(N)N(c2cccnc2)C2=C1C(=O)CC(C)(C)C2 (configuration not stated) | inactive
CCC(C)[C@@H](N)C(=O)N/N=C/c1cccc2nccnc12 (some centres not stated) | active: 79.4 µM
Cc1oc2ccc(O)c(CN(C)Cc3ccccc3)c2c1C(=O)Nc1cccc(C(F)(F)F)c1 | inactive

SMILES | Potency
C/C(=N/NC(=O)CNC(=O)/C=C/c1ccco1)c1ccc(Cl)cc1 | active: 56.2 µM
O=C(O)COc1ccccc1/C=N/NC(=O)CSc1nc2ccccc2c(=O)n1-c1ccc(Cl)cc1 | active: 56.2 µM
CCCC(=O)Nc1ccc(C(=O)N/N=C2\CC(=O)CC(C)(C)C2)cc1 | inconclusive: 100 µM [inhibitor, single point]
COc1ccc(C(=O)N/N=C/c2cccc3cccnc23)cc1 | active: 20 µM
O=C(NC1CCCCC1)C(c1cccs1)N(Cc1cccs1)C(=O)c1ccco1 (configuration not stated) | inconclusive: 79.4 µM [inhibitor, single point]
Cc1cccc(NS(=O)(=O)c2ccc3[nH]c(=O)ccc3c2)c1C | inactive
Nc1nc(CN2CCOCC2)cs1 | inactive
CCCc1cc(-c2nc(-c3ccc(Cl)cc3)cs2)ccn1 | inactive
CCOC(=O)c1nc(C)sc1-c1ccnn1S(=O)(=O)c1ccc(C)cc1 | inconclusive: 89.1 µM [inhibitor, single point]
CCN(CC(=O)NCc1cccs1)S(=O)(=O)c1c(F)cccc1F | inactive
CCOc1ccccc1N1C(=O)CC(Nc2ccc(N3CCOCC3)cc2)C1=O (configuration not stated) | inconclusive: 70.8 µM [inhibitor, single point]
CCOc1ccc(-n2c(CCC(=O)O)ccc2-c2ccc(Br)cc2)cc1 | active: 39.8 µM
Cc1ccc([C@@H]2[C@@H]3C(=O)N(C)C(=O)[C@@H]3[C@]3(Cc4ccccc4)C(=O)N(CCO)CC(=O)N23)o1 | inactive
COc1cc(OC)c(C2Nc3ccccc3NC3=C2C(=O)CC(C)(C)C3)cc1OC (configuration not stated) | inconclusive: 89.1 µM [inhibitor, single point]
C=CCn1c(SCC(=O)NCC(=O)OCC)nnc1-c1ccccn1 | inconclusive: 89.1 µM [inhibitor, single point]
O=C1C(NS(=O)(=O)c2cccs2)=C(N2CCN(c3ccccc3)CC2)C(=O)c2ccccc21 | active: 5.62 µM
CCOc1ccc(-n2c(SCC(=O)N3CCCC3)nc3c([nH]c4ccccc43)c2=O)cc1 | inactive
c1ccc2c(c1)ncn2CCCCOc1ccc2c(c1)CCC2 | active: 28.2 µM
Cc1nc2sccn2c(=O)c1S(=O)(=O)NCC(C)c1ccccc1 (configuration not stated) | inactive
C(=N\C(/N=C/c1ccco1)c1ccco1)/c1ccco1 | inconclusive: 89.1 µM [inhibitor, single point]
Cn1c(=O)c2c(SCC(=O)N3CCc4ccccc43)nc(-c3ccccc3Cl)nc2n(C)c1=O | inactive
O=[N+]([O-])/C(C(=C(Cl)Cl)N1CCOCC1)=C1\NCCO1 | inconclusive: 70.8 µM [inhibitor, partial curve]
NC(=O)C(=CNc1nc(-c2ccc(Cl)c(Cl)c2)cs1)C(N)=O | active: 44.7 µM
CC(C)CCN1C(=O)C2(OCCCO2)c2cc(Cl)ccc21 | inactive
O=C(O)Cc1sc(Nc2ccccc2Cl)nc1-c1ccccc1 | inactive
O=C(c1cc2c(s1)CCC2)N1C(=O)c2ccccc2S1(=O)=O | active: 50.1 µM

SMILES | Potency
COc1cc(C(=S)N2CCOCC2)ccc1OC(=O)c1ccccc1[N+](=O)[O-] | inactive
O=C(CNC(=O)c1ccccc1)NCC(=O)OCC(=O)c1ccccc1 (Bz-Gly-Gly-OPac) | inconclusive: 89.1 µM [inhibitor, single point]
CCOC(=O)C1=C(CNCCc2ccc(Cl)cc2)NC(=O)NC1c1cccc([N+](=O)[O-])c1 (configuration not stated) | inconclusive: 39.8 µM [inhibitor, partial curve]
CCCCn1c(=O)c(C(=O)OCC)c(O)c2ccccc21 | inconclusive: 79.4 µM [inhibitor, partial curve]
CC(=O)c1cccc(OCC(O)CNCCOc2ccc(C)cc2)c1 (configuration not stated) | active: 50.1 µM
Cc1ccc(-c2ccc(=O)n(CC(=O)N3CCN(c4cccc(C)c4)C(C)C3)n2)cc1 (configuration not stated) | inconclusive: 89.1 µM [inhibitor, single point]
CC(=O)c1ccc(NC(=O)C2CCCN(S(=O)(=O)c3ccc4c(c3)CCCN4C(C)=O)C2)cc1 (configuration not stated) | inactive
CCC(C)NC(=O)COc1ccccc1[N+](=O)[O-] (configuration not stated) | inactive
CCN(CC)c1ccc(/C=N/N2CCN(Cc3ccccc3Cl)CC2)c(O)c1 | active: 10 µM
Cc1cc2ncn(/N=C/c3ccc4c(c3)OCO4)c2cc1C | inconclusive: 89.1 µM [inhibitor, single point]
CCCCNC(=O)c1cc2cc(CC)ccc2[nH]1 | inconclusive: 79.4 µM [inhibitor, single point]
CCOc1cc(CNc2ncnc3nc[nH]c23)ccc1OC | inactive
COc1ccc(-c2nc(N)ncc2-c2ccccc2OC)c(O)c1 | inconclusive: 79.4 µM [inhibitor, single point]
CC1CC(C)CN(CC(=O)Nc2ccc(S(N)(=O)=O)cc2)C1 (configuration not stated) | inactive
Cc1nc2nc(SCc3ccc(F)cc3Cl)nn2c(C)c1Cc1ccccc1 | inactive
CCOc1ccc(-c2cn3c(n2)sc2cc(C(=O)NCCCc4ccccc4)ccc23)cc1 | inactive
CCC1CN(C(=O)N2CCC(C(=O)Nc3cc(C)ccc3C)CC2)c2ccccc2O1 (configuration not stated) | active: 79.4 µM
COc1ccc(/C=N/Nc2ncnc(Cl)c2N)cc1OC | inconclusive: 89.1 µM [inhibitor, single point]
O=C(NCc1ccco1)c1cccc(Br)c1 | inconclusive: 89.1 µM [inhibitor, single point]
CCCN1CCCc2ccccc21 | inconclusive: 89.1 µM [inhibitor, single point]
CC(C)c1ccc(NC(=O)CSc2n[nH]c(=O)n2Cc2ccco2)cc1 | inconclusive: 44.7 µM [inhibitor, partial curve, poor fit]
COc1ccc(C(=O)NCCCn2cccn2)cc1OC1CCN(C(C)=O)CC1 | inactive
Cc1ccc(S(=O)(=O)N(C)CC(=O)OCc2nnc(-c3ccccc3)o2)cc1 | inconclusive: 89.1 µM [inhibitor, single point]
CCOc1ccc(C(=O)N/N=C/c2cccc3cccnc23)cc1 | active: 20 µM
Cc1ccc(-c2c(C)n3c4c(=O)n(C)c(=O)n(C)c4nc3n2-c2cccc(O)c2)cc1 | inactive
